# Results published in the antibiotic and cytotoxicity screens of Wong et al. (2023).
# Some of the results follow.
# System: HSkMC (human skeletal muscle cells)
# Assay: cytotoxicity call (relative viability < 0.9)
# Conditions: 10 µM
row,SMILES,cytotoxicity call
1,CCn1cc(C(=O)O)c(=O)c2cc(F)c(N3CCN(C(=S)Nc4cc(C(F)(F)F)ccc4Cl)CC3)cc21,inactive
2,Clc1ccc(Cn2cccc2)cn1,inactive
3,CC(C)NC(=O)NCC[C@@H]1CC[C@H](NC(=O)CN(C)C)[C@H](CO)O1,inactive
4,CN1CCc2onc(Cn3ccnc3)c2C1,inactive
5,Cc1cc(C(=O)Nc2cccc3c2O[C@H](CN(C)S(=O)(=O)c2ccc(Cl)cc2)[C@H](C)CN([C@H](C)CO)C3=O)n(C)n1,inactive
6,C[C@H](CO)N1C[C@H](C)[C@@H](CN(C)C(=O)c2ccccc2F)Oc2ncc(C#Cc3ccncc3)cc2C1=O,inactive
7,COc1cc2c(cc1OC)CN(C(=O)[C@H]1[C@@H]3C(=O)O[C@@H](c4ccccc4)[C@@H](c4ccccc4)N3[C@@H](c3ccc(OCCO)cc3)[C@]13C(=O)Nc1ccc(C#CCCO)cc13)CC2,inactive
8,Cc1ccccc1S(=O)(=O)N1C[C@H](O)COC[C@@H]2O[C@H](CC(=O)NCc3ccccc3Cl)CC[C@H]21,inactive
9,CC(C)NC(=O)Nc1ccc2c(c1)C(=O)N([C@@H](C)CO)C[C@@H](C)[C@@H](CN(C)S(=O)(=O)c1ccc(Cl)cc1)O2,inactive
10,CCN(CC)C(=O)C1CCNCC1,inactive
11,CC1(C)C(=O)C=CC2(C)C1C=CC1(C)C2CCC2(C)C(c3ccoc3)OC(=O)C3OC312 (configuration not stated),active
12,O=C(C[C@@H]1CC[C@@H]2[C@H](COC[C@H](O)CN2C(=O)c2ccc3c(c2)OCO3)O1)NCCN1CCCCC1,inactive

# System: HepG2
# Assay: cytotoxicity call (relative viability < 0.9)
# Conditions: 10 µM
row,SMILES,cytotoxicity call
1,CC(C)NC(=O)N1CC[C@@H]2N(S(C)(=O)=O)CC[C@@]2(C(=O)N2CCOCC2)CC1,inactive
2,C[C@H]1[C@H](C)CC[C@]2(C(=O)O[C@@H]3O[C@H](CO[C@@H]4O[C@H](CO)[C@@H](O[C@@H]5O[C@@H](C)[C@H](O)[C@@H](O)[C@H]5O)[C@H](O)[C@H]4O)[C@@H](O)[C@H](O)[C@H]3O)CC[C@]3(C)C(=CC[C@@H]4[C@@]5(C)C[C@@H](O)[C@H](O)[C@@](C)(CO)[C@@H]5[C@H](O)C[C@]43C)[C@H]12,inactive
3,COc1ccc(NC(=O)Nc2ccc3c(c2)C(=O)N([C@@H](C)CO)C[C@@H](C)[C@@H](CN(C)C(=O)Nc2c(C)noc2C)OCCCC[C@@H](C)O3)cc1,inactive
4,CC[C@@H](N)CC12CC3CC(CC(C3)C1)C2,inactive
5,O=C(C[C@@H]1CC[C@@H](NC(=O)c2ccc(F)cc2)[C@H](CO)O1)NCc1ccncn1,inactive
6,Cc1ccc(S(=O)(=O)N2CCNCC2)cc1,inactive
7,COC(=O)C(c1ccccc1Cl)N1CCc2sccc2C1.O=S(=O)(O)O (configuration not stated),inactive
8,COc1ccc(C#Cc2ccc3c(c2)[C@]2(C(=O)N3)[C@H](C(=O)Nc3nc4ccccc4s3)[C@H]3C(=O)O[C@H](c4ccccc4)[C@H](c4ccccc4)N3[C@@H]2c2ccc(O)cc2)cc1,inactive
9,Oc1ccc(O)cc1,active
10,O=C(N[C@@H](c1ccc(-c2ccccc2)cc1)c1cnccn1)C1CCN(Cc2ccc(Oc3ccccc3)cc2)CC1,active
11,CCCNC(=O)C[C@@H]1CC[C@H]2[C@@H](COc3ccc(NS(=O)(=O)c4ccccc4C)cc3C(=O)N2C)O1,inactive
12,CON=C1CC2(CC3CC(CC=C(C)CC(C)C=CC=C4COC5C(O)C(C)=CC(C(=O)O3)C45O)O2)OC(C(C)=CC(C)C)C1C (configuration not stated),active
13,C[C@@H]1CCCCO[C@@H](CN(C)C(=O)Nc2ccccc2)[C@H](C)CN([C@H](C)CO)C(=O)c2cc(NC(=O)NC3CCCCC3)ccc2O1,inactive
14,Cc1ccc(S(=O)(=O)Nc2ccc3c(c2)C(=O)N([C@@H](C)CO)C[C@@H](C)[C@H](CN(C)Cc2ccncc2)OCCCC[C@H](C)O3)cc1,inactive
15,C[C@H](CO)N1C[C@H](C)[C@H](CN(C)C(=O)Nc2ccccc2)OCCCC[C@H](C)Oc2ccc(NC(=O)Nc3ccccc3)cc2C1=O,inactive
16,C[C@@H]1CN([C@H](C)CO)C(=O)CCCn2nncc2CO[C@@H]1CN(C)S(=O)(=O)c1ccc(Oc2ccccc2)cc1,inactive
17,C[C@@H]1CCCCO[C@H](CN(C)S(=O)(=O)c2ccc(F)cc2)[C@@H](C)CN([C@@H](C)CO)C(=O)c2cc(NS(C)(=O)=O)ccc2O1,inactive
18,C[C@H]1C[C@@](N)(C(=O)O)C1,inactive
19,COc1ccccc1C#Cc1ccc2c(c1)O[C@H](CN(C)C(C)=O)[C@@H](C)CN([C@@H](C)CO)S2(=O)=O,inactive
20,CCCCCN1C/C=C\CCC(=O)N(C)[C@H](C)[C@@H](c2ccccc2)OC(=O)[C@@H]2[C@@H]3C=C[C@]4(O3)[C@H](C1=O)N(c1ccccc1Cl)C(=O)[C@@H]24,inactive

row,SMILES,cytotoxicity call
1,C[C@H](O)C#Cc1ccc2c(c1)O[C@@H](CN(C)C(=O)Cc1ccccn1)[C@@H](C)CN([C@@H](C)CO)S2(=O)=O,inactive
2,C[C@H](CO)N1C[C@H](C)[C@H](CN(C)S(=O)(=O)c2ccccc2)Oc2cc(Br)ccc2S1(=O)=O,inactive
3,C[C@@H]1CN([C@@H](C)CO)S(=O)(=O)c2ccc(C#CCC3CCCC3)cc2O[C@@H]1CN(C)C(=O)c1cnccn1,inactive
4,Cc1noc(C)c1NC(=O)Nc1ccc2c(c1)C(=O)N([C@H](C)CO)C[C@@H](C)[C@H](CN(C)C(=O)Nc1c(C)noc1C)OCCCC[C@@H](C)O2,inactive
5,O=C(C[C@@H]1CC=CC[C@H](NC(=O)OCC2c3ccccc3-c3ccccc32)C(=O)OC[C@@H](Cc2c[nH]c3ccccc23)NC1=O)N[C@H](CO)Cc1ccccc1,inactive
6,COc1ccc(NC(=O)Nc2ccc3c(c2)C(=O)N([C@@H](C)CO)C[C@H](C)[C@@H](CN(C)Cc2ccc4c(c2)OCO4)OCCCC[C@H](C)O3)cc1,inactive
7,N[C@H](C(=O)O)[C@@H]1CC(Cl)=NO1,active
8,C[C@@H]1CN([C@@H](C)CO)C(=O)c2cc(NC(=O)NC3CCCCC3)ccc2O[C@@H](C)CCCCO[C@H]1CN(C)S(=O)(=O)c1ccc(F)cc1,inactive
9,CCn1cc(C(=O)O)c(=O)c2cc(F)c(N3CCN(C(=S)Nc4cc(C(F)(F)F)ccc4Cl)CC3)cc21,inactive
10,Clc1ccc(Cn2cccc2)cn1,inactive
11,CC(C)NC(=O)NCC[C@@H]1CC[C@H](NC(=O)CN(C)C)[C@H](CO)O1,inactive
12,CN1CCc2onc(Cn3ccnc3)c2C1,inactive
13,Cc1cc(C(=O)Nc2cccc3c2O[C@H](CN(C)S(=O)(=O)c2ccc(Cl)cc2)[C@H](C)CN([C@H](C)CO)C3=O)n(C)n1,inactive
14,C[C@H](CO)N1C[C@H](C)[C@@H](CN(C)C(=O)c2ccccc2F)Oc2ncc(C#Cc3ccncc3)cc2C1=O,inactive
15,COc1cc2c(cc1OC)CN(C(=O)[C@H]1[C@@H]3C(=O)O[C@@H](c4ccccc4)[C@@H](c4ccccc4)N3[C@@H](c3ccc(OCCO)cc3)[C@]13C(=O)Nc1ccc(C#CCCO)cc13)CC2,inactive
16,Cc1ccccc1S(=O)(=O)N1C[C@H](O)COC[C@@H]2O[C@H](CC(=O)NCc3ccccc3Cl)CC[C@H]21,inactive
17,CC(C)NC(=O)Nc1ccc2c(c1)C(=O)N([C@@H](C)CO)C[C@@H](C)[C@@H](CN(C)S(=O)(=O)c1ccc(Cl)cc1)O2,inactive
18,CCN(CC)C(=O)C1CCNCC1,inactive
19,CC1(C)C(=O)C=CC2(C)C1C=CC1(C)C2CCC2(C)C(c3ccoc3)OC(=O)C3OC312 (configuration not stated),active
20,O=C(C[C@@H]1CC[C@@H]2[C@H](COC[C@H](O)CN2C(=O)c2ccc3c(c2)OCO3)O1)NCCN1CCCCC1,inactive
